From the BET-seq Pho4 binding data (Le et al. 2018)
Some of the results follow. These are noisy estimates, calculated here from bound and input reads.

These sequences were tested against T1, Pho4 (S. cerevisiae) (UniProt P07270) (assay: relative binding free energy (BET-seq); higher = weaker binding). Details: reference: library average.
T1 sequence: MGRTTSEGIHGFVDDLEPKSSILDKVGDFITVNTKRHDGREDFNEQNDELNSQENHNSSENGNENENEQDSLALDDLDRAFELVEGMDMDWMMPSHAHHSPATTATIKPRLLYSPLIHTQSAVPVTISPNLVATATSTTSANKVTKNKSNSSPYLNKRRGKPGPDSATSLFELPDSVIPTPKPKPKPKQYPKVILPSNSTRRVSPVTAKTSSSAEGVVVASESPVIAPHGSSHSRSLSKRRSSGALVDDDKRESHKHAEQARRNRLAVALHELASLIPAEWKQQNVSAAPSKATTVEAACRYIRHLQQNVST
ATTTGCACGTGGATAA was tested, and the “relative binding free energy” value was -0.15 kcal/mol. In the case of ATGTTCACGTGTGGAT, the “relative binding free energy” value is reported as 0.3 kcal/mol. With TATGTCACGTGGTGAG the “relative binding free energy” value was 0.02 kcal/mol. With TTTGACACGTGATTTT the “relative binding free energy” value was 0.15 kcal/mol. For TGGGCCACGTGCGTGG, the “relative binding free energy” value was -0.19 kcal/mol. With GGGTGCACGTGCTGGG the “relative binding free energy” value was 0 kcal/mol. In the case of GGTATCACGTGGTGAC, the “relative binding free energy” value is reported as 0.15 kcal/mol. CTTTACACGTGGTAGT was tested, and the “relative binding free energy” value was 0.13 kcal/mol. With TATTGCACGTGAAGGT the “relative binding free energy” value was 0.18 kcal/mol. For GAGGGCACGTGGTTAC, the “relative binding free energy” value was -0.07 kcal/mol. For GGAGACACGTGATTTT, the “relative binding free energy” value was 0.2 kcal/mol. With AGATTCACGTGCTGTG the “relative binding free energy” value was 0.2 kcal/mol. In the case of CGGATCACGTGGTTGT, the “relative binding free energy” value is reported as 0.14 kcal/mol. With TGTCTCACGTGGGTAG the “relative binding free energy” value was 0.07 kcal/mol. For GAGGTCACGTGGGTAT, the “relative binding free energy” value was -0.02 kcal/mol. In the case of TGCCGCACGTGAGGGG, the “relative binding free energy” value is reported as 0.13 kcal/mol. TTGGGCACGTGGTAAC was tested, and the “relative binding free energy” value was -0.27 kcal/mol. In the case of GGAATCACGTGGTTGA, the “relative binding free energy” value is reported as 0.21 kcal/mol. GTTGACACGTGCAGAG was tested, and the “relative binding free energy” value was 0.12 kcal/mol. GGAGTCACGTGGAAGG was tested, and the “relative binding free energy” value was 0.19 kcal/mol. In the case of ATTCACACGTGGGTAG, the “relative binding free energy” value is reported as -0.06 kcal/mol. With AGGTTCACGTGCAGGT the “relative binding free energy” value was 0.25 kcal/mol. In the case of AATATCACGTGGCAGG, the “relative binding free energy” value is reported as 0.15 kcal/mol. With GTTGCCACGTGCGGAG the “relative binding free energy” value was 0.07 kcal/mol. In the case of GTGAGCACGTGGTGTA, the “relative binding free energy” value is reported as -0.11 kcal/mol. With ATTTGCACGTGAGTTT the “relative binding free energy” value was 0.38 kcal/mol. For TTTGGCACGTGACATG, the “relative binding free energy” value was 0 kcal/mol. In the case of TGTGGCACGTGTATCG, the “relative binding free energy” value is reported as -0.11 kcal/mol. In the case of TTTAGCACGTGTACGT, the “relative binding free energy” value is reported as 0.03 kcal/mol. In the case of CAGGGCACGTGTTGGG, the “relative binding free energy” value is reported as -0.03 kcal/mol. In the case of GACAGCACGTGGGTAG, the “relative binding free energy” value is reported as 0.04 kcal/mol. For GCGTTCACGTGGTGTT, the “relative binding free energy” value was 0.16 kcal/mol. For TGGAGCACGTGCGATG, the “relative binding free energy” value was -0.12 kcal/mol. With TGGCACACGTGTTGTG the “relative binding free energy” value was 0.12 kcal/mol. With GGCGTCACGTGTATGG the “relative binding free energy” value was 0.17 kcal/mol. For GAGGGCACGTGGAGTC, the “relative binding free energy” value was 0.03 kcal/mol. TAAATCACGTGTTAAG was tested, and the “relative binding free energy” value was 0.09 kcal/mol. For GTGACCACGTGAGGGT, the “relative binding free energy” value was 0.19 kcal/mol. TAGAACACGTGGGTTA was tested, and the “relative binding free energy” value was -0.21 kcal/mol. With TTGAGCACGTGGCAGA the “relative binding free energy” value was 0 kcal/mol. With GGGATCACGTGGAATG the “relative binding free energy” value was 0.26 kcal/mol. With TCTGACACGTGATTGG the “relative binding free energy” value was 0.02 kcal/mol. In the case of TTGGGCACGTGGCTTC, the “relative binding free energy” value is reported as -0.16 kcal/mol. For TTTGGCACGTGCGCTT, the “relative binding free energy” value was -0.17 kcal/mol. TTTTACACGTGATTAA was tested, and the “relative binding free energy” value was 0.23 kcal/mol. TGGGGCACGTGAGTTG was tested, and the “relative binding free energy” value was 0.21 kcal/mol. In the case of TGTATCACGTGAGGTA, the “relative binding free energy” value is reported as 0.32 kcal/mol. AAGGACACGTGTTAAG was tested, and the “relative binding free energy” value was 0.13 kcal/mol. TTGTTCACGTGTCAGT was tested, and the “relative binding free energy” value was 0.23 kcal/mol. With CTCATCACGTGGTGTG the “relative binding free energy” value was 0.04 kcal/mol. TGGGTCACGTGGACTT was tested, and the “relative binding free energy” value was 0.15 kcal/mol. For TGTGACACGTGGTAAG, the “relative binding free energy” value was 0 kcal/mol. In the case of GATGACACGTGGGCAG, the “relative binding free energy” value is reported as -0.06 kcal/mol. In the case of TAAAACACGTGTTTAT, the “relative binding free energy” value is reported as -0.06 kcal/mol. For GTTAACACGTGCAGTG, the “relative binding free energy” value was 0.14 kcal/mol. ATTTACACGTGATGAT was tested, and the “relative binding free energy” value was 0.04 kcal/mol. For TTTTACACGTGTTAAC, the “relative binding free energy” value was 0.15 kcal/mol. With ATCGTCACGTGGGTGT the “relative binding free energy” value was 0.06 kcal/mol. TATGTCACGTGGTGAT was tested, and the “relative binding free energy” value was 0.12 kcal/mol. For CGACACACGTGGGGTT, the “relative binding free energy” value was -0.05 kcal/mol. For CAGATCACGTGGTGGG, the “relative binding free energy” value was 0.09 kcal/mol. TATGGCACGTGATATT was tested, and the “relative binding free energy” value was -0.04 kcal/mol. In the case of GGTAACACGTGGGGTG, the “relative binding free energy” value is reported as -0.13 kcal/mol. In the case of CGAGTCACGTGGAGGA, the “relative binding free energy” value is reported as 0.14 kcal/mol. For TAGTGCACGTGATAAG, the “relative binding free energy” value was 0.07 kcal/mol. GCGGTCACGTGTGATT was tested, and the “relative binding free energy” value was 0.43 kcal/mol. GTACGCACGTGGTTAT was tested, and the “relative binding free energy” value was -0.08 kcal/mol. In the case of GGCTTCACGTGAGAGG, the “relative binding free energy” value is reported as 0.39 kcal/mol. For GGTAACACGTGGAGAT, the “relative binding free energy” value was -0.03 kcal/mol. For GGTGTCACGTGCGTGG, the “relative binding free energy” value was 0.07 kcal/mol. For GGGTTCACGTGTTTTT, the “relative binding free energy” value was 0.45 kcal/mol. ATTTTCACGTGGGGCG was tested, and the “relative binding free energy” value was 0.15 kcal/mol. CGCCGCACGTGGTGGG was tested, and the “relative binding free energy” value was -0.27 kcal/mol. With TTCTACACGTGTGGGA the “relative binding free energy” value was 0.14 kcal/mol. With GATTGCACGTGAAGGT the “relative binding free energy” value was 0.21 kcal/mol. TTGTTCACGTGACTGT was tested, and the “relative binding free energy” value was 0.27 kcal/mol. For TATGCCACGTGGGGTA, the “relative binding free energy” value was -0.29 kcal/mol. With TGTTGCACGTGAAAGG the “relative binding free energy” value was 0.13 kcal/mol. For GTAGTCACGTGATAGG, the “relative binding free energy” value was 0.18 kcal/mol. For AGAGTCACGTGTAGTG, the “relative binding free energy” value was 0.15 kcal/mol. For GGAATCACGTGGTTGT, the “relative binding free energy” value was 0.26 kcal/mol. In the case of GAGGTCACGTGTGCAT, the “relative binding free energy” value is reported as 0.18 kcal/mol. With AGTGACACGTGATTGA the “relative binding free energy” value was 0.12 kcal/mol. With GGTGGCACGTGAAGCA the “relative binding free energy” value was 0.18 kcal/mol. With TATCACACGTGTGTAT the “relative binding free energy” value was 0.01 kcal/mol. For AATTGCACGTGTTATT, the “relative binding free energy” value was 0.03 kcal/mol. TCTTTCACGTGTCAGG was tested, and the “relative binding free energy” value was 0.31 kcal/mol. TATGTCACGTGGAAAT was tested, and the “relative binding free energy” value was 0.19 kcal/mol. In the case of TATCGCACGTGGAGGT, the “relative binding free energy” value is reported as -0.06 kcal/mol. With TTCAGCACGTGTGGGT the “relative binding free energy” value was 0.04 kcal/mol. With CGTTGCACGTGTGAGG the “relative binding free energy” value was 0 kcal/mol. In the case of AGTGTCACGTGGCATT, the “relative binding free energy” value is reported as 0.03 kcal/mol. For TGTAACACGTGTACGG, the “relative binding free energy” value was 0.03 kcal/mol. In the case of AGAGGCACGTGGATGT, the “relative binding free energy” value is reported as -0.07 kcal/mol. In the case of GTGCCCACGTGGAGGT, the “relative binding free energy” value is reported as -0.19 kcal/mol. TTAGTCACGTGGCATG was tested, and the “relative binding free energy” value was 0.14 kcal/mol. GAAGGCACGTGGGCCG was tested, and the “relative binding free energy” value was -0.11 kcal/mol. For ATGAGCACGTGTGAGT, the “relative binding free energy” value was 0.09 kcal/mol. For TTGCACACGTGGTGGG, the “relative binding free energy” value was -0.08 kcal/mol. In the case of TTAGACACGTGGAGGC, the “relative binding free energy” value is reported as 0.12 kcal/mol. In the case of TGGAGCACGTGTGTGC, the “relative binding free energy” value is reported as -0.06 kcal/mol. AGCGGCACGTGTAGTG was tested, and the “relative binding free energy” value was 0.05 kcal/mol. With TCGGCCACGTGTTTGT the “relative binding free energy” value was -0.13 kcal/mol. GCGTTCACGTGTGGGC was tested, and the “relative binding free energy” value was 0.35 kcal/mol. With TTAGGCACGTGGAAGC the “relative binding free energy” value was -0.03 kcal/mol. For TGGAGCACGTGAGCGG, the “relative binding free energy” value was 0.08 kcal/mol. GTGGCCACGTGTGCAG was tested, and the “relative binding free energy” value was -0.14 kcal/mol. GCTTTCACGTGTATTG was tested, and the “relative binding free energy” value was 0.02 kcal/mol. In the case of TGGCGCACGTGTAGTT, the “relative binding free energy” value is reported as 0.05 kcal/mol. With TTGCACACGTGTGAGG the “relative binding free energy” value was -0.09 kcal/mol. With GTCGTCACGTGATGAG the “relative binding free energy” value was 0.19 kcal/mol. GCGGTCACGTGGATGG was tested, and the “relative binding free energy” value was 0.11 kcal/mol. With TTAGTCACGTGGAATC the “relative binding free energy” value was 0.18 kcal/mol. TGATTCACGTGCGGAT was tested, and the “relative binding free energy” value was 0.53 kcal/mol. For AAGGGCACGTGAAGTG, the “relative binding free energy” value was 0.18 kcal/mol.
